Data as given in the RNAGym collection of RNA variant scans (doi:10.7554/elife.90254).
Read counts are not given, so values of variants with three or more changes are uncertain.

B1: LINE1-mini (parent)
chain: GGCAGAGCUCAACACAGCGUGGCAAAGUGGCUGUGGCUAGACUGCC

Variants of: B1
Test: self-cleavage, relative activity (ratio to wild type); higher = more cleavage; in vitro, sequencing; the parent is a self-cleaving ribozyme

Question: For A4G A26U A41U U43G, which self-cleavage is on record?
Answer: 0.12

Question: Which self-cleavage does the source give for C8U C15A G35U here?
Answer: 0.14

Question: For A26U U38C G44U C45U, which self-cleavage is on record?
Answer: 0.05

Question: With G5C C15A A24U G33C as the variant, how does the self-cleavage read?
Answer: 0.02

Question: For C15A G19A G29C, which self-cleavage is on record?
Answer: 0.07

Question: Which self-cleavage does the source give for A12C A16G C31A G44C here?
Answer: 0.01

Question: Which self-cleavage does the source give for A14C G22U U28C here?
Answer: 0.01

Question: Which self-cleavage does the source give for G2A C13A G30A here?
Answer: 0.53

Question: For G5C A12C G17U C45U, which self-cleavage is on record?
Answer: 0.01

Question: Which self-cleavage does the source give for G29U C31A G35C here?
Answer: 0.04

Question: Which self-cleavage does the source give for G2U G19U A24C here?
Answer: 0.02

Question: With A6C A11U C13A C18A U20A A41G as the variant, how does the self-cleavage read?
Answer: 0.02

Question: For G1U G17U A41G C42G, which self-cleavage is on record?
Answer: 0

Question: Which self-cleavage does the source give for G5A G7U C13A C31G G33A here?
Answer: 0.03

Question: For C8U U9G G17C C18U, which self-cleavage is on record?
Answer: 0.02

Question: Which self-cleavage does the source give for G1C C13A U43C here?
Answer: 0.01

Question: For C3A A4U A14U U43A C45A C46G, which self-cleavage is on record?
Answer: 0.05

Question: With A6G A14U A16C U28A A39G G40A U43G as the variant, how does the self-cleavage read?
Answer: 0.08

Question: Which self-cleavage does the source give for A26U G27U C45G here?
Answer: 1.04

Question: Which self-cleavage does the source give for G1A G19A G40U here?
Answer: 0.03

Question: With C8G C13G U20C as the variant, how does the self-cleavage read?
Answer: 0.03

Question: With A4U G17C U20A G27A G33C as the variant, how does the self-cleavage read?
Answer: 0.02

Question: Which self-cleavage does the source give for A11U C15A G33U C45A here?
Answer: 0.03

Question: For C18A U34C C42G, which self-cleavage is on record?
Answer: 0.05

Question: With G1A G17A G19A G27A G35A G44U C46A as the variant, how does the self-cleavage read?
Answer: 0.06

Question: With G5C C13A G22A A26C G30C as the variant, how does the self-cleavage read?
Answer: 0.05

Question: For G1U A4G G21A C23A U43G C45A, which self-cleavage is on record?
Answer: 0.06

Question: With C18A G21U G27C C31U as the variant, how does the self-cleavage read?
Answer: 0.03

Question: For G5C U20C G21C U38C, which self-cleavage is on record?
Answer: 0.02

Question: With U9A A26G C31G as the variant, how does the self-cleavage read?
Answer: 0.1

Question: For G2A C10U U20A G29U C46G, which self-cleavage is on record?
Answer: 0.35

Question: Which self-cleavage does the source give for A4G A25G G30A U38G here?
Answer: 0.04

Question: Which self-cleavage does the source give for G1A C10U A12U A16G G21A A26U U34G C42U here?
Answer: 0.01

Question: For A12G G27A G35A, which self-cleavage is on record?
Answer: 0.02

Question: With G1U A14C C45U as the variant, how does the self-cleavage read?
Answer: 0.03

Question: With G2A A6U U9G C18G C31U G36C as the variant, how does the self-cleavage read?
Answer: 0.02

Question: Which self-cleavage does the source give for G1U G7U C8G here?
Answer: 0.04

Question: For U9G A25C G27A G36C U43A G44C, which self-cleavage is on record?
Answer: 0.01

Question: With C13G C18G G44U as the variant, how does the self-cleavage read?
Answer: 0.5

Question: With G21U A39C C46A as the variant, how does the self-cleavage read?
Answer: 0.08

Question: For C18G A24G G27U C31A, which self-cleavage is on record?
Answer: 0.08

Question: With C8U U9G C15G G27A as the variant, how does the self-cleavage read?
Answer: 0.04

Question: With C8A A11G C23U as the variant, how does the self-cleavage read?
Answer: 0.38

Question: Which self-cleavage does the source give for A12C C15A G29A C37A C46U here?
Answer: 0.01

Question: For A14C G22U G36U U43A, which self-cleavage is on record?
Answer: 0.01

Question: With U9C G33A C46G as the variant, how does the self-cleavage read?
Answer: 0.05

Question: For C3G G5C G22C C31A C37G, which self-cleavage is on record?
Answer: 0.02

Question: For C8G C18A U28C U34G U43C, which self-cleavage is on record?
Answer: 0.02

Question: Which self-cleavage does the source give for C3G G33C G44A here?
Answer: 0.07

Question: With G1U C13G G17C as the variant, how does the self-cleavage read?
Answer: 0.14

Question: For A14C G21C G22A C31U C46U, which self-cleavage is on record?
Answer: 0.03

Question: For G7U C23U A26U G27C U38A A41G, which self-cleavage is on record?
Answer: 0.02

Question: Which self-cleavage does the source give for C15U G19U A24C C37U G40U C42U here?
Answer: 0.02

Question: Which self-cleavage does the source give for C8U C31G G35C here?
Answer: 0.21

Question: Which self-cleavage does the source give for A11U G21A U38A here?
Answer: 0.04

Question: With C13A A26U G36C U43G as the variant, how does the self-cleavage read?
Answer: 0.02

Question: With G19A A25C A26G U32A G44A as the variant, how does the self-cleavage read?
Answer: 0.09

Question: Which self-cleavage does the source give for G22A G35U A41G G44A here?
Answer: 0.02

Question: With G2U G21C C23G as the variant, how does the self-cleavage read?
Answer: 0.07

Question: For G1C A11U G40C, which self-cleavage is on record?
Answer: 0.01

Question: With G2C G21U C23U G35C as the variant, how does the self-cleavage read?
Answer: 0.05

Question: Which self-cleavage does the source give for G1U C13A G21U A24U here?
Answer: 0.03

Question: Which self-cleavage does the source give for A11G C15A G33C U34G C37U here?
Answer: 0.01

Question: With C13U G19C A24C A25U A26C G33A as the variant, how does the self-cleavage read?
Answer: 0.06

Question: Which self-cleavage does the source give for A14U A25G C45A here?
Answer: 0.03

Question: With A4G C18U A24U A41G as the variant, how does the self-cleavage read?
Answer: 0.08

Question: For C13G G17U G21C G22U, which self-cleavage is on record?
Answer: 0.1

Question: With C3U A24C U34A as the variant, how does the self-cleavage read?
Answer: 0.08

Question: For A26C G27U G29A G33C C37G, which self-cleavage is on record?
Answer: 0.04

Question: With U9C G19U G21U G40U C42A as the variant, how does the self-cleavage read?
Answer: 0.17

Question: Which self-cleavage does the source give for G5A A14C C18G C23G C31U G33U A39G here?
Answer: 0.01

Question: Which self-cleavage does the source give for C8G G17U C23A A41C here?
Answer: 0.02

Question: For C15A G17A U20G, which self-cleavage is on record?
Answer: 0.18

Question: Which self-cleavage does the source give for G2C C10U A26G C31G G35A C37U here?
Answer: 0.04

Question: Which self-cleavage does the source give for C3G A16U U20A G21A U43G here?
Answer: 0.01

Question: For C3G A4U U9G C15G, which self-cleavage is on record?
Answer: 0.07

Question: Which self-cleavage does the source give for C10A G21U A26U here?
Answer: 0.03

Question: With G5U G19U G21A U28C C45U as the variant, how does the self-cleavage read?
Answer: 0.06

Question: With G5A U9C G21A G33U C37G as the variant, how does the self-cleavage read?
Answer: 0

Question: With C10G G17U G33A C46U as the variant, how does the self-cleavage read?
Answer: 0.03

Question: For C13A A24C C45U, which self-cleavage is on record?
Answer: 0.03

Question: Which self-cleavage does the source give for C13U C18U U32C G35C here?
Answer: 0.11

Question: Which self-cleavage does the source give for G17A G33U A41G C45U here?
Answer: 0.09

Question: For C15U G17C G33C G40U, which self-cleavage is on record?
Answer: 0.05
